# PubChem BioAssay AID1345083 (National Center for Advancing Translational Sciences (NCATS), 2018)
# The campaign covered roughly 94,000 compounds. About 6,200 (6.6%) were called active. Inconclusive means that the source gave no clear call. Such entries were picked first, then a sample of the others. The call rests on the fitted dose curve; in most records, active means well fitted inhibition curve with a large enough effect; inconclusive means small, poorly fitted or top-dose-only effect; inactive means flat fitted curve, though single readings scatter. Potencies of inconclusive entries are doubtful fits and often do not repeat.
# Assay: Cytotoxic Profiling in HEK 293 Cell Line of Diverse Libraries Using Quantitative High-Throughput Screening; further: nearly all actives have a fitted effect of over 60% in size
# Conditions: HEK 293 viability, ATP luminescence (CellTiter-Glo), 48-72 h; activity change, negative = cytotoxicity: at 115 µM (top of the series) unless noted; series mostly up to 115 µM
# In short: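 Luminescence from cellular ATP, measured with CellTiter-Glo, indicates HEK 293 viability. Cells plated at 250 cells/well are treated with compound for 48 or 72 hr at 37 degree Celsius before reagent addition.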
# On the % scale 0 is the no-effect control and ±100 the full control effect; potency means the concentration at half of the fitted maximal effect; tags describe the fitted curve by direction and shape.
Compound,Potency,"activity change, negative = cytotoxicity",outcome
O=C(C1CCCO1)N1CCOc2ccc(CN3CCc4ccccc4C3)cc2C1 (stereo not given),"inconclusive: 44.7 µM [inhibitor, partial curve, poor fit]",–,–
CN(C)C(C(=O)N1CCC(N2CCSCC2)CC1)c1cccc(F)c1 (stereo not given),–,inactive: 2.08%,–
CCC(=O)N1CCN(c2nc3c(s2)CC(C(=O)Nc2ccc(F)cc2C)CC3)CC1 (stereo not given),"inconclusive: 89.1 µM [inhibitor, single point]",–,–
COc1ccc2[nH]c3c(c2c1)CCNC31CCN(C(=O)c2ccc(OC)nc2OC)CC1,active: 11.2 µM,–,–
CSCC(=O)N[C@H]1CCN2C(=O)c3cc(-c4ccc5c(c4)OCO5)ccc3NC(=O)[C@H]12,–,inactive: -0.646%,–
COc1ccc(-c2cc(N3CCC(NC(=O)c4ccccc4Cl)CC3)n[nH]2)cc1,"inconclusive: 50.1 µM [inhibitor, partial curve, poor fit]",–,–
CCN1c2cc(C(=O)Nc3cccc(SC)c3)ccc2C(=O)N2CCCCCC21 (stereo not given),active: 22.4 µM,–,–
CCCC1=Nc2cc(C(=O)NCCc3ccc(OC)c(OC)c3)ccc2Sc2ccccc21,"inconclusive: 17.8 µM [inhibitor, full curve, poor fit]",–,–
O=C(NCCc1ccc(F)cc1)C1CCCCN1Cc1ccc(-c2cccs2)cc1 (stereo not given),active: 22.4 µM,–,–
COc1ccc(C2C(C(=O)OC(C)(C)C)=C(C)N=C3SC=C(CC(=O)NCC4CC4)N32)cc1OC (stereo not given),"inconclusive: 89.1 µM [inhibitor, single point]",–,–
O=C(c1cc(F)ccc1F)N1CCCC(Cc2nc(C3CCOCC3)no2)C1 (stereo not given),"inconclusive: 89.1 µM [inhibitor, single point]",–,–
COCCN1C(=O)CO[C@H]2CN(c3ncccn3)C[C@H]21,–,inactive: -10.6% [at 230 µM],–
Cc1cccc(CC(=O)N2CCC(n3cc(-c4nc(-c5ccccc5)no4)nn3)C2)c1 (stereo not given),"inconclusive: 56.2 µM [inhibitor, partial curve, poor fit]",–,–
COCc1cn([C@H]2CO[C@H]3[C@@H]2OC[C@H]3OC(=O)Nc2cccc(C#N)c2)nn1,"inconclusive: 89.1 µM [inhibitor, partial curve, poor fit]",–,–
COc1cccc(-c2cccc(C(=O)N3CCCC3C(=O)N3CCN(Cc4ccccc4)CC3)c2)c1 (stereo not given),"inconclusive: 22.4 µM [inhibitor, partial curve, poor fit]",–,–
O=C(c1ccccc1Cl)N1CCn2c(nn(-c3ccc(F)cc3)c2=O)C1,"inconclusive: 126 µM [inhibitor, single point]",–,–
CN1C[C@@H](NC(=O)C2CC2)C[C@H]1c1nc(-c2ccc3ccccc3c2)no1,"inconclusive: 112 µM [inhibitor, partial curve, poor fit]",–,–
Cn1ncc2c(C(=O)NCCc3ccccc3)cc(C(C)(C)C)nc21,"inconclusive: 56.2 µM [inhibitor, partial curve, poor fit]",–,–

Compound,Potency,"activity change, negative = cytotoxicity",outcome
CCC1(N2CCN(C(=O)c3ccc(N(C)C)cc3)CC2)CCN(C(=O)NC)C1 (stereo not given),"inconclusive: 79.4 µM [inhibitor, single point]",–,–
CSc1cccc(NC(=O)O[C@@H]2CC[C@]3(C)C(CC[C@@H](O)[C@H]3CC(=O)N3CC[C@H](NC(C)=O)C3)[C@]2(C)CO)c1 (stereo not given in full),–,inactive: -8.94%,–
Cc1noc(-c2ccn3c(CNC(=O)C(C)c4ccccc4)nnc3c2)n1 (stereo not given),–,–,inactive
COc1ccccc1NC(=O)Cn1c(C)ccc(NC(=O)Nc2ccc(C)cc2)c1=O,"inconclusive: 31.6 µM [inhibitor, full curve, poor fit]",–,–
CCc1noc(-c2cn(C3CCN(C(=O)c4cccc(N(C)C)c4)CC3)nn2)n1,"inconclusive: 50.1 µM [inhibitor, partial curve, poor fit]",–,–
COC(C)(C)C(=O)N1CCN(c2nc(-c3ccccc3)nc3c2CCC3)CC1,active: 79.4 µM,–,–
O=C1CN(C(=O)CCC(=O)N2CCCC(Cc3nncn3Cc3ccccc3)C2)c2ccccc2N1 (stereo not given),–,–,inactive
O=C(NCc1ccc(Cl)cc1)c1ccc2nnc(-c3cccnc3)n2c1,"inconclusive: 89.1 µM [inhibitor, single point]",–,–
CN(C)C(=O)N1CCC(c2nn(-c3ccccn3)c(=O)[nH]2)CC1,–,inactive: 2.21% [at 172 µM],–
CCO[C@H]1CN(C(=O)c2ccc(NS(=O)(=O)CC)cc2)C[C@@H]1O,–,inactive: -0.244%,–
Cn1ncc2c(C(=O)Nc3cccc(F)c3)cc(-c3ccc(C(F)(F)F)cc3)nc21,–,–,inactive
CC1(c2ccccc2)N(Cc2ccccc2)C(=O)OC12CCN(C(=O)COc1ccccc1)CC2 (stereo not given),"inconclusive: 39.8 µM [inhibitor, partial curve]",–,–
Cc1nc2cnccn2c1C(=O)NCC1CCCCC1,"inconclusive: 100 µM [inhibitor, partial curve, poor fit]",–,–
CCc1noc(-c2cccn3c(CNC(=O)COc4ccc(F)cc4)nnc23)n1,–,inactive: 4.23%,–
CC[C@H]1CN(S(=O)(=O)c2ccc(OC)cc2)CC[C@H]1CC(=O)N1CCC(C(=O)OC)CC1,–,inactive: -9.07%,–
CN(Cc1noc2c1CCCC2)C(=O)Cn1cccc(C(F)(F)F)c1=O,–,inactive: -5.17%,–
COc1ccc(-n2ccnc2CN2CCN(CC=C(C)C)C(CCO)C2)cc1 (stereo not given),–,inactive: -6.33%,–
